Experimental data taken from PubChem BioAssay AID1768 (National Center for Advancing Translational Sciences (NCATS), 2009).
Screen size: about 270,000 compounds; about 620 (0.23%) were called active. Inconclusive means that the source gave no clear call. Such entries were picked first, then a sample of the others. Calls follow the shape of the dose curve; as a rule, active = well fitted inhibition curve with a large enough effect in the polarisation, with a control signal flat (not every such curve was filed as active); inconclusive = small, poorly fitted or top-dose-only effect, or effect the other way, or a change in a side signal; inactive = no such curve, though single readings can be large or run the other way; the % refers to the polarisation. Potencies beside an inconclusive call are fits to weak or partial responses and may not hold up. “Side channel” marks fits to a control or component signal instead of the main read-out.

molecular target: Menin (Homo sapiens) (UniProt O00255); assay: qHTS Assay for Inhibitors Targeting the Menin-MLL Interaction in MLL Related Leukemias: Competition With Texas Red Labeled MLL-derived Mutant Peptide; details: fluorescence polarization; FP activity change, negative = inhibition: at 61.6 µM (top of the series); as to FP activity change, negative = inhibition: % of control where 0% means no effect
Potency is read from the fitted curve at half-maximal effect; tags tell the direction and shape of the fitted curve or compound fluorescence and quenching.

Chain of UniProt O00255 (O00255 whole entry, looked up): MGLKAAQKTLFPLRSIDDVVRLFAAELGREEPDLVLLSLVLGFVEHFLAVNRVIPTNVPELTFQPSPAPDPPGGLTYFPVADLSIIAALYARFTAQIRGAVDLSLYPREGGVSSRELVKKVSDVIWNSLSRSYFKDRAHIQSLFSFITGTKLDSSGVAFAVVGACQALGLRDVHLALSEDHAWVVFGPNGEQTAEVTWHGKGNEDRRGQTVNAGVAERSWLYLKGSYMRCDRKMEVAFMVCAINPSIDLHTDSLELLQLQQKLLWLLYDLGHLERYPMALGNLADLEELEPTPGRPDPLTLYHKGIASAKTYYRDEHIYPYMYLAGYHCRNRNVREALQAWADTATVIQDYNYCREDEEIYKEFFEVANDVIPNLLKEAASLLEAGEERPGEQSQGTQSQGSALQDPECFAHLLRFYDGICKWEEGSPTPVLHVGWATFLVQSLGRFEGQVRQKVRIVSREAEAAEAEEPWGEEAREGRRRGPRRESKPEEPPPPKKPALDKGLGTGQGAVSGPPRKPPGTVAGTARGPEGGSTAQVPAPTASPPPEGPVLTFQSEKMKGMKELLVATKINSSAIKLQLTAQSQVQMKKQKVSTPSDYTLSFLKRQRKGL

Row | SMILES | Potency | FP activity change, negative = inhibition
1 | O=C(COc1ccc([N+](=O)[O-])cc1)NNC(=O)Nc1ccc([N+](=O)[O-])cc1 | inconclusive: 14.1 µM [quencher, side channel, partial curve] | –
2 | Cc1ccc(-c2cc(C(F)F)n3ncc(C(=O)N4CCCCC4c4cccnc4)c3n2)cc1 (stereo unspecified) | inconclusive: 5.01 µM [fluorescent, side channel, full curve] | –
3 | O=C(O)c1cc(S(=O)(=O)Nc2ccc3oc(=O)sc3c2)ccc1O | inconclusive: 31.6 µM [quencher, side channel, single point] | –
4 | CCOc1ccc(/C=N/NC(=O)COc2ccccc2-c2ccccc2)cc1 | inconclusive: 3.16 µM [inhibitor, full curve] | –
5 | CN(CC(=O)NC(c1ccccc1)c1ccccc1)Cc1nc2ccccc2c(=O)[nH]1 | – | inactive: -6.35%
6 | COc1cc2c(cc1OC)C(c1cc3cccc(C)c3[nH]c1=O)N(C(=O)c1ccco1)CC2 (stereo unspecified) | inconclusive: 3.16 µM [fluorescent, side channel, partial curve] | –
7 | CSc1ccc(-c2nnn(CC(=O)NCc3ccccc3)n2)cc1 | inconclusive: 4.47 µM [inhibitor, full curve] | –
8 | CN1C[C@H](C(=O)N[C@]2(C)O[C@@]3(O)[C@H]4CCCN4C(=O)[C@H](Cc4ccccc4)N3C2=O)C[C@H]2c3cccc4[nH]cc(c34)C[C@@H]21 | – | inactive: -5.59% [at 24.8 µM]
9 | NC(=O)CN1C(=O)C(=O)N(Cc2cccc(Cl)c2)C1=O | – | inactive: 3.28%
10 | CCO/C=N/Nc1nc(C(F)(F)F)nc2c1cnn2Cc1ccccc1 | inconclusive: 31.6 µM [quencher, side channel, single point] | –
11 | COc1cccc(NC(=O)COc2ccc(C(=S)N3CCN(C)CC3)cc2OC)c1 | inconclusive: 6.31 µM [quencher, side channel, single point] | –
12 | COc1cc(N(C)C)cc(CN(C)CCc2ccc([N+](=O)[O-])cc2)c1O | inconclusive: 22.4 µM [quencher, side channel, partial curve] | –
13 | COc1ccc(N(CC(=O)NC(C)c2ccccc2)S(=O)(=O)c2ccc(C)cc2)cc1 (stereo unspecified) | inconclusive: 10 µM [fluorescent, side channel, partial curve] | –
14 | C#CCCCO/N=C1/C[C@@H](O)[C@@H](O)[C@@H]2[C@@H]3C(=O)N(CCC(=O)OCC)C(=O)[C@H]3CC[C@H]12 | – | inactive: -1.88% [at 11.7 µM]
15 | CCn1c(C)c2c([n+]1CC)CC(C)(C)CC2=O | – | inactive: -2.81%
16 | COc1ccc(CCNC(=O)c2c(O)c3ccccc3[nH]c2=O)cc1OC | inconclusive: 12.6 µM [quencher, side channel, partial curve] | –
17 | Cc1nc2cnc(Oc3ccccc3)nc2n(-c2ccccc2)c1=O | inconclusive: 3.16 µM [inhibitor, single point] | –
18 | CCOc1ccc(NC(=O)C(c2ccccn2)N(C(=O)CCl)c2ccc(OC)cc2)cc1 (stereo unspecified) | inconclusive: 44.7 µM [inhibitor, partial curve] | –
19 | Cc1ccc(N=Cc2cc(C)n(C3CCCC3)c2C)cc1 | inconclusive: 28.2 µM [inhibitor, single point] | –

Row | SMILES | Potency | FP activity change, negative = inhibition
20 | C=CCOc1c(Br)cc(CNc2ccc3[nH]c(=O)[nH]c3c2)cc1OCC | inconclusive: 14.1 µM [quencher, side channel, partial curve] | –
21 | CCn1c2ccccc2c2cc(NC(=O)c3cc(C)on3)ccc21 | inconclusive: 28.2 µM [quencher, side channel, single point] | –
22 | O=C(Nc1ccc(Cl)c(Cl)c1)c1ccc(Cn2cc(Cl)cn2)cc1 | inconclusive: 3.55 µM [quencher, side channel, full curve] | –
23 | C/C(=N\Nc1nc(C)cc(-c2ccccc2)n1)c1ccccc1 | inconclusive: 25.1 µM [fluorescent, side channel, single point] | –
24 | CCOc1cc(C2c3c(oc4cc(C)c(Cl)cc4c3=O)C(=O)N2Cc2ccco2)ccc1O (stereo unspecified) | inconclusive: 10 µM [inhibitor, partial curve] | –
25 | COc1ccc(-c2cc(-c3c(O)c(OC)c4occc4c3OC)[nH]n2)cc1OC | inconclusive: 28.2 µM [quencher, side channel, partial curve] | –
26 | Cc1cc(C)c2nc(NCCCNC(=S)NCCCN(C)C)c(C#N)cc2c1 | inconclusive: 17.8 µM [fluorescent, side channel, single point] | –
27 | COc1ccc(NC(=O)CSc2nc3ccccc3c(=O)n2CCCN2CCC(C)CC2)c(OC)c1 | inconclusive: 17.8 µM [fluorescent, side channel, partial curve] | –
28 | Cc1cccc(NC(=O)c2n[nH]c([N+](=O)[O-])c2Br)c1C | – | inactive: 21.9%
29 | C(=C\c1nccc2c1[nH]c1ccccc12)/c1ccccc1 | inconclusive: 15.8 µM [quencher, side channel, single point] | –
30 | CCCCCC(=O)Nc1nc(C)c(-c2csc(Nc3cc(Cl)ccc3C)n2)s1 | inconclusive: 8.91 µM [quencher, partial curve] | –
31 | COC(=O)C1=C(C(=O)OC)[C@@H]2N(Cc3ccccc3)c3ccccc3[C@@]23C[C@@H](C(=O)OC)N(S(=O)(=O)c2ccc4c(c2)OCCN4C)C3=N1 | – | inactive: -8.18% [at 11.7 µM]
32 | C=C(C)c1cccc(C(C)(C)NC(=O)N2CCCCC2CC)c1 (stereo unspecified) | inconclusive: 14.1 µM [fluorescent, side channel, single point] | –
33 | C#CCNC(=O)C1=C[C@@H](C2CCCCC2)C[C@@H](OCc2ccc(CO)cc2)O1 | inconclusive: 39.8 µM [fluorescent, side channel, single point] | –
34 | O=C(CC1S/C(=N/N=C/c2cccs2)NC1=O)Nc1ccc(Cl)c(Cl)c1 (stereo unspecified) | inconclusive: 17.8 µM [quencher, side channel, partial curve] | –
35 | O=C(N/N=C\c1ccc2c(c1)OCO2)c1ccc(Cn2cc(Br)c([N+](=O)[O-])n2)o1 | inconclusive: 28.2 µM [quencher, side channel, partial curve] | –
36 | CCc1ccc(S(=O)(=O)/N=C2/C=C(Sc3ncn[nH]3)C(=O)c3ccccc32)cc1 | inconclusive: 39.8 µM [quencher, side channel, partial curve] | –
37 | C=CCN1CC(c2nc3ccccc3n2CCOc2ccccc2)CC1=O (stereo unspecified) | inconclusive: 39.8 µM [fluorescent, side channel, single point] | –
38 | CCCCC(=O)Nc1ccc(C(=O)NNC(=S)NC(=O)c2ccccc2[N+](=O)[O-])cc1 | inconclusive: 22.4 µM [quencher, side channel, partial curve] | –

Row | SMILES | Potency | FP activity change, negative = inhibition
39 | CCOc1nc(NC(=O)NS(=O)(=O)Oc2cccc(Cl)c2)nc(-c2ccccc2)n1 | – | inactive: 7.16%
40 | CCCCCCC(=O)Nc1nc(C)c(-c2csc(Nc3ccccc3OC)n2)s1 | inconclusive: 2.82 µM [quencher, side channel, full curve] | –
41 | Cc1c(Cl)cccc1N1C(=O)C(N2C(=O)c3cccc([N+](=O)[O-])c3C2=O)C1c1cccs1 (stereo unspecified) | inconclusive: 28.2 µM [quencher, side channel, single point] | –
42 | Nc1ccc(C(=O)n2c3ccccc3c3ccccc32)cc1 | inconclusive: 22.4 µM [quencher, side channel, partial curve] | –
43 | CCCc1cc(=O)[nH]c(SCC(=O)c2cc(C)n(C3CC3)c2C)n1 | inconclusive: 28.2 µM [fluorescent, side channel, single point] | –
44 | Cc1ccc(-c2csc(/C(C#N)=C(\O)CCl)n2)cc1 | inconclusive: 20 µM [quencher, side channel, partial curve] | –
45 | Cc1nc(SCC(=O)NCCc2ccccc2)nc(C)c1C | – | inactive: -12.6%
46 | O=c1c(Sc2ccccc2)c(C(F)(F)F)[nH]n1-c1ccccc1 | inconclusive: 22.4 µM [quencher, side channel, partial curve] | –
47 | N#C/C(=C\c1cccc(Oc2ccccc2)c1)C(=O)N1CCOCC1 | inconclusive: 1.58 µM [fluorescent, side channel, full curve, poor fit] | –
48 | CCOc1cc(N2CCOCC2)c(OCC)cc1NS(=O)(=O)c1ccc(Cl)s1 | inconclusive: 28.2 µM [inhibitor, single point] | –
49 | COC(=O)c1cc(C(=O)Nc2ccc(Cl)cn2)cc([N+](=O)[O-])c1 | inconclusive: 25.1 µM [quencher, side channel, single point] | –
50 | O=C(NCc1ccc2c(c1)OCO2)Nc1ccc(Cl)cc1 | inconclusive: 39.8 µM [inhibitor, single point] | –
51 | CCCCSc1nnc2n(CCc3ccccc3)c(=O)c3c4c(sc3n12)COC(C)(C)C4 | inconclusive: 3.16 µM [fluorescent, side channel, full curve] | –
52 | O=C(COc1ccc([N+](=O)[O-])cc1)NNC(=S)NC(=O)c1ccc(Br)cc1 | inconclusive: 28.2 µM [quencher, side channel, partial curve] | –
53 | CN1CCN(S(=O)(=O)c2ccc(NC(=O)Nc3cccc(Cl)c3)cc2)CC1 | inconclusive: 5.01 µM [quencher, side channel, partial curve] | –
54 | Cc1nnc(Sc2cc(NCCO)c([N+](=O)[O-])c3nonc23)s1 | – | inactive: 12.8%
55 | O=C(COC(=O)c1ccc(O)cc1)Nc1ccc(N2CCCCC2)cc1 | – | inactive: 6.13%
56 | Cc1ccc(/C=N/NC(=O)CSc2nnc(-c3ccccc3)n2-c2ccc(Cl)cc2)o1 | inconclusive: 17.8 µM [fluorescent, side channel, single point] | –
